Here are results for 12 molecules from US20240076343A1.

Common to all, as to assay: cell-based or functional assay
The target in assay [1] is intermediate affinity hIL-2 receptor complex (IL-2Rβγ) (human) (UniProt P14784).
For assay [2], the target named is high-affinity hIL-2 receptor (IL-2Rαβγ) on NK-92 cells (human) (UniProt P01589).
Assay [3] addresses intermediate affinity hIL-2 receptor complex (IL-2Rβγ) on TF1+IL-2Rβ cells (human) (UniProt P14784).
Assay [4] has as its target high-affinity hIL-2 receptor (IL-2Rαβγ) (human) (UniProt P01589).

B1: 1H3-hIgG1-L6-hIL-2 (T3A/F42A/Y45A/L72G/C125A) (protein)
heavy: EVQLVESGGGLVQPGRSLKLSCAVSGFTFSDYAMAWVRQAPKKGLEWVATISYDGSRTYYRDSVKGRFTISRDNAKITLYLQMDSLRSEDTATYYCARHGSGYFDYWGQGVMVTVSS[not shown - human IgG1 constant region]SGGGGSAPASSSTKKTQLQLEHLLLDLQMILNGINNYKNPKLTRMLTAKFAMPKKATELKHLQCLEEELKPLEEVLNGAQSKNFHLRPRDLISNINVIVLELKGSETTFMCEYADETATIVEFLNRWITFAQSIISTLT
light: DTVLTQSPALAVSPGERVTISCRASESVRTGVHWYQQKPGQQPKLLIYGASNLESGVPARFSGSGSGTDFTLTIDPVEADDTATYFCQQSWNDPFTFGSGTKLEIKRTVAAPSVFIFPPSDEQLKSGTASVVCLLNNFYPREAKVQWKVDNALQSGNSQESVTEQDSKDSTYSLSSTLTLSKADYEKHKVYACEVTHQGLSSPVTKSFNRGEC
For B1, in assay [1], the Fold change from rhIL-2 (TF1 + IL-2Rβ), pSTAT5 titration turned out to be 0 fold. In addition, in assay [2], the Fold change from hIL-2 (NK-92), fixed concentration pSTAT5 screen came out at 10 fold and the Fold change from rhIL-2 (NK-92) was 142 fold. Also, the Fold change from hIL-2 (TF1 + IL-2Rβ), fixed concentration pSTAT5 screen in assay [3] was found to be 1 fold.

B2: 1H3-hIgG1-L6-hIL-2 (R38E/S130A) (protein)
heavy: EVQLVESGGGLVQPGRSLKLSCAVSGFTFSDYAMAWVRQAPKKGLEWVATISYDGSRTYYRDSVKGRFTISRDNAKITLYLQMDSLRSEDTATYYCARHGSGYFDYWGQGVMVTVSS[not shown - about 450 residues with a human IgG1 Fc and changes]
light: B1 light
With B2, in assay [2], the Fold change from hIL-2 (NK-92) came out at 12 fold. Further, the Fold change from hIL-2 (TF1 + IL-2Rβ) in assay [3] was 0 fold.

B3: 1H3-hIgG1-L6-hIL-2 (R38N/D20A) (protein)
heavy: EVQLVESGGGLVQPGRSLKLSCAVSGFTFSDYAMAWVRQAPKKGLEWVATISYDGSRTYYRDSVKGRFTISRDNAKITLYLQMDSLRSEDTATYYCARHGSGYFDYWGQGVMVTVSS[not shown - about 450 residues with a human IgG1 Fc and changes]
light: B1 light
For the molecule B3, in assay [1], the Agonistic Activity (TF1 + IL-2Rβ), pSTAT5 titration was 70% and the Fold change from rhIL-2 (TF1 + IL-2Rβ), pSTAT5 titration turned out to be 121 fold. The same molecule returned a Fold change from hIL-2 (NK-92) in assay [2] of 14 fold. In assay [4], this molecule came in with an Agonistic Activity (NK-92), pSTAT5 titration of 70% and a Fold change from rhIL-2 (NK-92), pSTAT5 titration of 4500 fold. In addition, the Fold change from hIL-2 (TF1 + IL-2Rβ) in assay [3] turned out to be 3 fold.

B4: 1H3-hIgG1-L6-hIL-2 (D20A/E95A/L72Y) (protein)
heavy: EVQLVESGGGLVQPGRSLKLSCAVSGFTFSDYAMAWVRQAPKKGLEWVATISYDGSRTYYRDSVKGRFTISRDNAKITLYLQMDSLRSEDTATYYCARHGSGYFDYWGQGVMVTVSS[not shown - human IgG1 constant region]SGGGGSAPTSSSTKKTQLQLEHLLLALQMILNGINNYKNPKLTRMLTFKFYMPKKATELKHLQCLEEELKPLEEVLNYAQSKNFHLRPRDLISNINVIVLALKGSETTFMCEYADETATIVEFLNRWITFCQSIISTLT
light: B1 light
For B4, the Fold change from hIL-2 (NK-92) in assay [2] amounted to 1 fold. Moreover, the Fold change from hIL-2 (TF1 + IL-2Rβ) in assay [3] stood at 5 fold.

B5: 1H3-hIgG1-L6-hIL-2 (D20A/E95A/L72F) (protein)
heavy: EVQLVESGGGLVQPGRSLKLSCAVSGFTFSDYAMAWVRQAPKKGLEWVATISYDGSRTYYRDSVKGRFTISRDNAKITLYLQMDSLRSEDTATYYCARHGSGYFDYWGQGVMVTVSS[not shown - human IgG1 constant region]SGGGGSAPTSSSTKKTQLQLEHLLLALQMILNGINNYKNPKLTRMLTFKFYMPKKATELKHLQCLEEELKPLEEVLNFAQSKNFHLRPRDLISNINVIVLALKGSETTFMCEYADETATIVEFLNRWITFCQSIISTLT
light: B1 light
B5: in assay [2], the Fold change from hIL-2 (NK-92) was 2 fold. In addition, the Fold change from hIL-2 (TF1 + IL-2Rβ) in assay [3] amounted to 6 fold.

B6: 1H3-hIgG1-L6-hIL-2 (D20A/E95A/L72A) (protein)
heavy: EVQLVESGGGLVQPGRSLKLSCAVSGFTFSDYAMAWVRQAPKKGLEWVATISYDGSRTYYRDSVKGRFTISRDNAKITLYLQMDSLRSEDTATYYCARHGSGYFDYWGQGVMVTVSS[not shown - human IgG1 constant region]SGGGGSAPTSSSTKKTQLQLEHLLLALQMILNGINNYKNPKLTRMLTFKFYMPKKATELKHLQCLEEELKPLEEVLNAAQSKNFHLRPRDLISNINVIVLALKGSETTFMCEYADETATIVEFLNRWITFCQSIISTLT
light: B1 light
B6 registered a Fold change from hIL-2 (NK-92) in assay [2] of 2 fold. Besides, the Fold change from hIL-2 (TF1 + IL-2Rβ) in assay [3] stood at 6 fold.

B7: 1H3-hIgG1-L6-hIL-2 (D20A/E95A/K43Q) (protein)
heavy: EVQLVESGGGLVQPGRSLKLSCAVSGFTFSDYAMAWVRQAPKKGLEWVATISYDGSRTYYRDSVKGRFTISRDNAKITLYLQMDSLRSEDTATYYCARHGSGYFDYWGQGVMVTVSS[not shown - human IgG1 constant region]SGGGGSAPTSSSTKKTQLQLEHLLLALQMILNGINNYKNPKLTRMLTFQFYMPKKATELKHLQCLEEELKPLEEVLNLAQSKNFHLRPRDLISNINVIVLALKGSETTFMCEYADETATIVEFLNRWITFCQSIISTLT
light: B1 light
As for B7, the Fold change from hIL-2 (NK-92) in assay [2] stood at 5 fold. Moreover, the Fold change from hIL-2 (TF1 + IL-2Rβ) in assay [3] came to 6 fold.

B8: 1H3-hIgG1-L6-hIL-2 (R38H/D20A) (protein)
heavy: EVQLVESGGGLVQPGRSLKLSCAVSGFTFSDYAMAWVRQAPKKGLEWVATISYDGSRTYYRDSVKGRFTISRDNAKITLYLQMDSLRSEDTATYYCARHGSGYFDYWGQGVMVTVSS[not shown - about 450 residues with a human IgG1 Fc and changes]
light: B1 light
For B8, in assay [1], the Agonistic Activity (TF1 + IL-2Rβ), pSTAT5 titration was 70% and the Fold change from rhIL-2 (TF1 + IL-2Rβ), pSTAT5 titration worked out at 107 fold. The Fold change from hIL-2 (NK-92) in assay [2] came out at 12 fold. Besides, in assay [4], the Agonistic Activity (NK-92), pSTAT5 titration is 80% and the Fold change from rhIL-2 (NK-92), pSTAT5 titration was determined as 1750 fold. Moreover, the Fold change from hIL-2 (TF1 + IL-2Rβ) in assay [3] came to 3 fold.

B9: 1H3-hIgG1-L6-hIL-2 (D20Y/H16A) (protein)
heavy: EVQLVESGGGLVQPGRSLKLSCAVSGFTFSDYAMAWVRQAPKKGLEWVATISYDGSRTYYRDSVKGRFTISRDNAKITLYLQMDSLRSEDTATYYCARHGSGYFDYWGQGVMVTVSS[not shown - about 450 residues with a human IgG1 Fc and changes]
light: B1 light
As for B9, in assay [1], the Fold change from rhIL-2 (TF1 + IL-2Rβ), pSTAT5 titration is 30 fold. The molecule also gave a Fold change from hIL-2 (NK-92) in assay [2] of 10 fold. Besides, the Fold change from rhIL-2 (NK-92), pSTAT5 titration in assay [4] is more than 10000 fold. Besides, the Fold change from hIL-2 (TF1 + IL-2Rβ) in assay [3] stood at 3 fold.

B10: 1H3-hIgG1-L6-hIL-2 (R38E/Q126A) (protein)
heavy: EVQLVESGGGLVQPGRSLKLSCAVSGFTFSDYAMAWVRQAPKKGLEWVATISYDGSRTYYRDSVKGRFTISRDNAKITLYLQMDSLRSEDTATYYCARHGSGYFDYWGQGVMVTVSS[not shown - about 450 residues with a human IgG1 Fc and changes]
light: B1 light
In assay [2], B10 displayed a Fold change from hIL-2 (NK-92) of 13 fold. Also, the Fold change from hIL-2 (TF1 + IL-2Rβ) in assay [3] worked out at 1 fold.

B11: 1H3-hIgG1-L6-hIL-2 (R38E/I129A) (protein)
heavy: EVQLVESGGGLVQPGRSLKLSCAVSGFTFSDYAMAWVRQAPKKGLEWVATISYDGSRTYYRDSVKGRFTISRDNAKITLYLQMDSLRSEDTATYYCARHGSGYFDYWGQGVMVTVSS[not shown - about 450 residues with a human IgG1 Fc and changes]
light: B1 light
Consider B11, for which, in assay [2], the Fold change from hIL-2 (NK-92) amounted to 13 fold. Also, the Fold change from hIL-2 (TF1 + IL-2Rβ) in assay [3] stood at 1 fold.

B12: 1H3-hIgG1-L6-hIL-2 (R38I/D20A) (protein)
heavy: EVQLVESGGGLVQPGRSLKLSCAVSGFTFSDYAMAWVRQAPKKGLEWVATISYDGSRTYYRDSVKGRFTISRDNAKITLYLQMDSLRSEDTATYYCARHGSGYFDYWGQGVMVTVSS[not shown - about 450 residues with a human IgG1 Fc and changes]
light: B1 light
For B12, in assay [1], the Agonistic Activity (TF1 + IL-2Rβ), pSTAT5 titration stood at 60% and the Fold change from rhIL-2 (TF1 + IL-2Rβ), pSTAT5 titration worked out at 107 fold. Also, in assay [2], the Fold change from hIL-2 (NK-92) was 11 fold. In assay [4], the Agonistic Activity (NK-92), pSTAT5 titration is 70% and the Fold change from rhIL-2 (NK-92), pSTAT5 titration stood at 658 fold. Moreover, in assay [3], the Fold change from hIL-2 (TF1 + IL-2Rβ) is 3 fold.
